The campaign covered roughly 410,000 compounds. About 6,400 (1.6%) were called active. Inconclusive results, whose numbers are uncertain, are shown with a selection of clear calls. Calls come from the whole dose curve; as a rule, active = well fitted inhibition curve with a large enough effect; inconclusive = small, poorly fitted or top-dose-only effect; inactive = no such curve, though single readings can be large or run the other way. Potencies of inconclusive entries are left out as doubtful fits.
biological target: Glucagon-like peptide 1 receptor (Homo sapiens) (UniProt P43220); assay: qHTS of GLP-1 Receptor Inverse Agonists (Inhibition Mode); conditions: HEK293 GLP-1R CRE-luciferase, luminescence, 24 h, GLP-1R form is constitutively active; activity change, negative = inhibition: at 38.3 µM (top of the series) unless noted; note: nearly all actives have a fitted effect of over 55% in size
UniProt P43220, sequence (P43220 whole entry, looked up): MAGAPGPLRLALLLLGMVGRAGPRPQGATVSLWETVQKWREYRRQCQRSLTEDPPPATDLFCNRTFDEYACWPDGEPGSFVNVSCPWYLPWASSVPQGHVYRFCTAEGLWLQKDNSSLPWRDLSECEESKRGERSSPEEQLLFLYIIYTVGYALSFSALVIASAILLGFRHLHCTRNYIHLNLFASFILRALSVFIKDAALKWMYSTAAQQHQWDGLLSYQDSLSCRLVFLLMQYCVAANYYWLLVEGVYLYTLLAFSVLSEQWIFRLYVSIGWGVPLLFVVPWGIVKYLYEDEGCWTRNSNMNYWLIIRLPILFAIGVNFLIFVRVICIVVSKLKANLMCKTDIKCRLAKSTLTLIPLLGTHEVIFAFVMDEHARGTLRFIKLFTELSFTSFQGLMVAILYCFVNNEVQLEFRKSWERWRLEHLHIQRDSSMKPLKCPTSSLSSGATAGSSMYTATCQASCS
Summary of the method: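 Readout was luciferase luminescence, measured 12 min after detection reagent at room temperature. Beforehand, GLP-1R reporter HEK293 cells had sat 12 h, then received compounds for 24 hr at 37 deg C.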
% is set by controls: 0 for no effect and ±100 for the full control effect; potency is the fitted concentration of half-maximal effect; tags give direction and shape of the fitted curve.

Compound | activity change, negative = inhibition | Potency
O=S1(=O)C[C@@H](N2CCC[C@@H]2CO)[C@H](COCc2ccccc2)N1 | inactive: 1.99% | 
CCc1[nH]nc(C(=O)N2CCCC(N3CCN(c4ccccc4C)CC3)C2)c1C (configuration not stated) |  | inconclusive [inhibitor, partial curve, poor fit]
Cc1ccc(CNC(=O)c2ccc(S(=O)(=O)N3CCCCC3)cc2)cc1 |  | inconclusive [inhibitor, partial curve, poor fit]
O=C(c1ccccc1)c1coc2ccc(O)c(CN3CCOCC3)c12 |  | inconclusive [inhibitor, partial curve]
Cc1ccc(OCCN2C(=O)C(=O)c3cc(C)ccc32)cc1 | inactive: -19.5% | 
COc1ccc(NC(=O)c2cc3c(=O)n(Cc4cccs4)ccc3nc2C)c(OC)c1 | inactive: -20.7% | 
Cc1cc(C)cc(NS(=O)(=O)c2ccc(-c3cc(C)no3)s2)c1 |  | inconclusive [inhibitor, partial curve, poor fit]
CSCCC(NC(=O)c1ccccc1)C(=O)N1CCN(C(c2ccccc2)c2ccccc2)CC1 (configuration not stated) |  | inconclusive [inhibitor, partial curve, poor fit]
COc1ccc(NC(=O)Cn2c(=O)n(Cc3nc(C)no3)c(=O)c3cc4c(cc32)OCO4)cc1 | inactive: 0.284% | 
CC(C)c1cccc(C2=CC(=O)C[C@H](c3ccc4c(c3)OCO4)C2)c1 |  | inconclusive [inhibitor, partial curve, poor fit]
COc1ccc(-c2[nH]ncc2/C=C(/C#N)C(=O)NC2CCCCC2)cc1 |  | inconclusive [inhibitor, partial curve, poor fit]
Cc1ccc(-c2nnn(C(C)C(=O)N3c4ccccc4CCc4ccccc43)n2)cc1 (configuration not stated) |  | inconclusive [inhibitor, partial curve, poor fit]
Cc1cc(-c2ccc(S(=O)(=O)Nc3cccc(C(F)(F)F)c3)s2)on1 |  | inconclusive [inhibitor, single point]
O=C(N/C(=C/c1ccc(Cl)cc1)c1nc2ccccc2[nH]1)c1ccco1 |  | inconclusive [inhibitor, partial curve]
CC(C)Sc1ncc(Cl)c(C(=O)Nc2nc3ccc(S(C)(=O)=O)cc3s2)n1 | inactive: 12.2% | 
CC1(c2ccccc2Cl)NC(=O)N(CC(=O)N2CCc3ccccc32)C1=O (configuration not stated) |  | inconclusive [inhibitor, single point]
CCOC(=O)c1ccc(NC(=O)C2=C(C)C(=O)OC23CCCCCC3)cc1 |  | inconclusive [inhibitor, partial curve, poor fit]

Source: PubChem BioAssay AID624417 (National Center for Advancing Translational Sciences (NCATS), 2012)
